Results from PMC12136788.
This is one part of the list.

B1: chr7:5527443:5527567:-|3pUTR|ENSG00000075624|msi1_unk|FALSE|overlapping (ssRNA)
RNA: GGGAGUUCUACAGUCCGACGAUCCAUCCCCCAAAGUUCACAAUGUGGCCGAGGACUUUGAUUGCACAUUGUUGUUUUUUUAAUAGUCAUUCCAAAUAUGAGAUGCGUUGUUACAGGAAGUCCCUUGCCAUCCUAAAAGCCACCCAACAGAGGAUUGAGCAUCA
B2: chr21:34788506:34788607:-|3pUTR|ENSG00000159216|msi1|total|mutant (ssRNA)
RNA: GGGAGUUCUACAGUCCGACGAUCUUGUUAAUGCCUAUAACUUUUUUUCAAUUUUUUUGUGUGUGUUUCUAAGGACUUUUUCUCCGGUUUGCUAAAUACUGCCGGGAAAAAAAUGCUUCUUUCUACUUUGUUUAUUUCCGACUUCAACAGAGGAUUGAGCAUCA
B3: chr7:137879121:137879144:-|3pUTR|ENSG00000182158|msi1_unk|total|mutant (ssRNA)
RNA: GGGAGUUCUACAGUCCGACGAUCUAAUCCCCAACCUACUUUCCGUUUUUUUGUUUUUUUUUUAUGGUUAAAAGUAACUUUUGCCGUUUAAAAAAAUCUUUCCUCUUUCAUAUAAAUAAGAAGUGGAAAUUGCCUUUUUAUUGUCAACAGAGGAUUGAGCAUCA
B4: chr15:38352922:38353023:+|3pUTR|ENSG00000166068|msi1|total|mutant (ssRNA)
RNA: GGGAGUUCUACAGUCCGACGAUCUACAUAUAAAUUUAUUUCUUUUGCAGAGCAUUAUAUUACUGGAUGUUUAAUUUACAAAACCGUUGGGUAAAUGUUCCAACAAACUUUAAAGUACCUUGAAGUCAAAUUGUCUGUUUUUGUCAACAGAGGAUUGAGCAUCA
B5: chr3:31579932:31580050:+|CDS|ENSG00000163527|unk|FALSE|unique (ssRNA)
RNA: GGGAGUUCUACAGUCCGACGAUCUACAUCUAUAUCUACUUUCCUGCUUACAAGAGAACUUUGGAACCAAGGAGCAGGACUUUUAGCUGCUUGUUUUAUUGCUAUUGUACCAGGCUACAUAUCUCGGUCAGUAGCUGGAUCCUUCAACAGAGGAUUGAGCAUCA
B6: chr19:38409054:38410039:-|three_prime_utr|ENSG00000171777|control|control|control (ssRNA)
RNA: GGGAGUUCUACAGUCCGACGAUCCUCCCUUCCCCCAGUCAGUCCUGAGUCCUGCCGUCAGACUCUGGCAGGGCUCCCAGAGGUAGGCCUCCAGAGGCAUCCGCCUUCCCAUCCACACUGCCUUUAGUGGUACGUCCGUCAUCUCAACAGAGGAUUGAGCAUCA
B7: ENSG00000102230:stop:overlap|stop_codon|ENSG00000102230|stop_codon|NA|stop_codon (ssRNA)
RNA: GGGAGUUCUACAGUCCGACGAUCUGCAGGCCUUAUCCCCGAAGCAGAGCCCUCUGAAGAGUUGGGCGAGGUGCAGAGACUUCUAGCUGGACAACCUACACAAACCUUAGCGUCUAGAGUCACUCUAACCUUGCUAAGGAAGGACAACAGAGGAUUGAGCAUCA
B8: chr21:18281039:18281221:-|CDS|ENSG00000154646|control|control|control (ssRNA)
RNA: GGGAGUUCUACAGUCCGACGAUCACCUCUCCUCAAACAGUCCCUCGAUUAAUAGAUGAAAUUGUCAUAAACCCUCAUUACAAUAGGCGAAGAAAGGACAACGACAUUGCCAUGAUGCAUCUGGAAUUUAAAGUGAAUUACACACAACAGAGGAUUGAGCAUCA
B9: chr12:64421256:64421371:+|CDS|ENSG00000184575|unk|total|mutant (ssRNA)
RNA: GGGAGUUCUACAGUCCGACGAUCGUUGACUUCCUGGCCAGAUUUUCUAAGUUGGUAAAUGGAAUGGGACAGUCAUUGACCGUCCGUUGGAGUAAAUUAAUUAAGAAUGGGGAUAUUAAGAAUGCUCAAGAGGCACUACAAGCUCAACAGAGGAUUGAGCAUCA
B10: chr15:64675409:64675510:+|CDS|ENSG00000180357|msi1|FALSE|bound_elsewhere (ssRNA)
RNA: GGGAGUUCUACAGUCCGACGAUCAACCAACAGCCCUGCAUACUCUGACAUCUCUGAUGCUGGGGAGGAUGGGGAGGGCAAGGUAGACAGUGUCAAAUCAAAGGACGCCGAACAGUUGGUUAAAGAAGGGGCUAAGAAAACUCUCAACAGAGGAUUGAGCAUCA
B11: chr11:107429260:107429366:-|CDS|ENSG00000152404|unk|total|mutant (ssRNA)
RNA: GGGAGUUCUACAGUCCGACGAUCGAGGAAACCCACAUAUUCAGAUAAAGCACAAAAUUGUCAAGAAAGCCGAGAAUCAGACUCCGUAAAAUAUGGUAACAGUUCAAGGGACCGAUAUGCUACAACAGAUACUGCAAAAAACCGCAACAGAGGAUUGAGCAUCA
B12: chr9:121988909:121989747:-|three_prime_utr|ENSG00000175764|control|control|control (ssRNA)
RNA: GGGAGUUCUACAGUCCGACGAUCACCUCUCCUUAUCGACAAGCUCAAGUUUGAUAUUCGUCUGUAUGUCUUACUCAAGUCCUUAGACCCCUUAGAGAUUUAUAUAGCCAAAGACGGACUCUCUAGGUUUUGUACCGAGCCAUACAACAGAGGAUUGAGCAUCA
B13: chr2:43888187:43888297:-|3pUTR|ENSG00000138095|unk|total|mutant (ssRNA)
RNA: GGGAGUUCUACAGUCCGACGAUCAAAAUGUUAUUCCUUUAUUUAAGAUUCACUUAUCCGUCUGCUGUUUCUCUGAAAAAUUUCCGAGCCCGGUACCGUGACCGUGAACUUUCUAACGCAUAAUAUUCUGUGAUACAGCCAUUCCAACAGAGGAUUGAGCAUCA
B14: chr11:69651733:69651797:+|3pUTR|ENSG00000110092|msi1_unk|FALSE|overlapping (ssRNA)
RNA: GGGAGUUCUACAGUCCGACGAUCAAAACAUUUUAAAAACAUAGAAAAAUUCAGCAAACCAUUUUUAAAGUAGAAGAGGGUUUUAGGUAGAAAAACAUAUUCUUGUGCUUUUCCUGAUAAAGCACAGCUGUAGUGGGGUUCUAGCAACAGAGGAUUGAGCAUCA
B15: ENSG00000124766:be:win_1801|3pUTR|ENSG00000124766|bound_else_gene|NA|bound_elsewhere_windowed (ssRNA)
RNA: GGGAGUUCUACAGUCCGACGAUCGAGCUUCCGGACUUGUCUGCACCCCCAGCAAGAAGGCGAGUUAGUUUUCUAGAGACUUGAAGGAGUCUCCCCCUUCCUGCAUCACCACCUUGGUUUUGUUUUAUUUUGCUUCUUGGUCAACAACAGAGGAUUGAGCAUCA
B16: chr1:113764432:113764533:-|3pUTR|ENSG00000081019|msi1|total|mutant (ssRNA)
RNA: GGGAGUUCUACAGUCCGACGAUCAAAAUAUUCUGAAACCGGUUAAAUCUUAUAUAAAUAUUACUUUGUGCAAUAUUGUUGUGCCGUUAAAUGCAUAUCCGCAAAGUACCGAGGUCACUGUGUAAACCGACCGAAAAGUAACCACAACAGAGGAUUGAGCAUCA
B17: ENSG00000075624:stop:overlap|stop_codon|ENSG00000075624|stop_codon|NA|stop_codon (ssRNA)
RNA: GGGAGUUCUACAGUCCGACGAUCGGAUCAGCAAGCAGGAGUAUGACGAGUCCGGCCCCUCCAUCGUCCACCGCAAAUGCUUCUAGGCGGACUAUGACUUAGAUUUAAAAACUGGAACGGUGAAGGUGACAGCAGUCGGUUGGACAACAGAGGAUUGAGCAUCA
B18: chr10:32268825:32268926:-|3pUTR|ENSG00000120616|unk|total|mutant (ssRNA)
RNA: GGGAGUUCUACAGUCCGACGAUCUGGGGACUUGACAGCAAUGCUCAUCUCUCAUGCUUCAAUUUUUCUUUUCUUACUGUUAACCGGAAAAAAAUCAACAUCUGUAAAUUAAGAAUACAGCAAUUAUCUGUACAGUACUGCAUACAACAGAGGAUUGAGCAUCA
B19: chr5:72990507:72990614:+|CDS|ENSG00000157107|unk|total|mutant (ssRNA)
RNA: GGGAGUUCUACAGUCCGACGAUCGUAUGGGAUGUAUUCAAAACAUCUACAGAGAAAUCCGCAAAUUGUCACUUGGAUCUUGUCCGAAAAUUACAAGAAUUAAUAAAGGAAGUUCAGAAGUAUGGAGAAGAACAAGUAAAGUCUCAACAGAGGAUUGAGCAUCA
B20: chr13:106490488:106490589:-|3pUTR|ENSG00000125266|msi1|total|mutant (ssRNA)
RNA: GGGAGUUCUACAGUCCGACGAUCAGCCAUCAGAAGUUACUUUCCGGAUGGGGGAGAGGGGCGAGAAGGGGAAAAAUGGGAAACCGUCUGAUUUUAAUGAAAUCAAAUGUAUGUAUCAUCAGUUGGCUACGUUUUGGUUCUAUGCAACAGAGGAUUGAGCAUCA
B21: chr13:98915392:98915499:-|CDS|ENSG00000088387|unk|total|mutant (ssRNA)
RNA: GGGAGUUCUACAGUCCGACGAUCUCAUUUCAGAACAACAAAGUCAGGCGUUUUGCUUUUGAGCUCAAGAUGCAGGACAAAAGCCGUUAUCUCUUGGCAGCAGACAGUGAAGUGGAAAUGGAAGAAUGGAUCACAAUUCUAAAUCAACAGAGGAUUGAGCAUCA
B22: chr4:110049619:110049852:-|3pUTR|ENSG00000170522|msi1|FALSE|unique (ssRNA)
RNA: GGGAGUUCUACAGUCCGACGAUCUUGUUCAAUGUGACAUAAUAGUAUUAUAAUUGGUUAAGUAGCUUAAUGAUUAGGCAAACUAGAUGAAAAGAUUAGGGGCUUCCACACUGCAUAGAUUACACGCACAUAGCCACGCAUACACAACAGAGGAUUGAGCAUCA

Molecular target: MSI1 full-length (mouse, UniProt Q61474 1-362)
Chain of UniProt Q61474 (Q61474 whole entry): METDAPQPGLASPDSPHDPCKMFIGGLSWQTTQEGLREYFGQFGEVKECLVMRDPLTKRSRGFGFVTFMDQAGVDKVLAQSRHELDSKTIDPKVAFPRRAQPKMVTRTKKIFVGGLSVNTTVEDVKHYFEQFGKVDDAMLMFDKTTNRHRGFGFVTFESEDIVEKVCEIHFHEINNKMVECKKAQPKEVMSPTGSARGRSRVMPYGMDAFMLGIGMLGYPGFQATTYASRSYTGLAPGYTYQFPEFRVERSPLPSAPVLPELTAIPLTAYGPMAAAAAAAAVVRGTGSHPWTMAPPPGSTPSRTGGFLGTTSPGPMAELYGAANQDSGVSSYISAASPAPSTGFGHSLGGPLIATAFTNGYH
Assay: nsRBNS (natural sequence RNA bind-n-seq); RBNS binding buffer (assumed for nsRBNS): 25 mM Tris pH 7.5, 150 mM KCl, 3 mM MgCl2, 0.01% Triton X-100, 500 ug/ml BSA, 20 U/ml SUPERase-In, 4 C; UNK is unkempt and MSI1 is Musashi-1; names of the RNAs are library labels; protein concentration not given here; high values mean tight binding

Binder | binding signal [enrichment R]
B1 | 0.903
B2 | 0.628
B3 | 0.624
B4 | 2.34
B5 | 0.418
B6 | 0.899
B7 | 0.431
B8 | 1.24
B9 | 0.57
B10 | 0.442
B11 | 0.703
B12 | 1.3
B13 | 0.353
B14 | 13.6
B15 | 0.837
B16 | 0.583
B17 | 2.6
B18 | 0.443
B19 | 0.443
B20 | 0.665
B21 | 0.336
B22 | 43.1
